First the molecules themselves.
B1: CPEB3 Ribozyme (parent)
chain: UAACAGGGGGCCACAGCAGAAGCGUUCACGUCGCAGCCCCUGUCAGAUUCUGGUGAAUCUGCGAAUUCUGCUGUAUAUCUC

The source gives no read counts; variants with many changes may rest on few reads.

The variants in the series derive from B1. The experiment in a line: self-cleavage, relative activity (ratio to wild type); higher = more cleavage; in vitro, sequencing. The gist of the method: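 Relative activity compares each variant's cleaved/total read fraction with that of the unmutated ribozyme. To get these fractions, barcoded CPEB3 ribozyme libraries from rounds of error-prone PCR were transcribed with T7 RNA polymerase for 5 hours at 37°C and then given 15 min of DNase I treatment before EDTA was added. The RNAs were reverse transcribed with template switching and sequenced on Illumina, and DNA sequencing linked barcodes to variants. A minimum of 5 reads applied, and three batches were averaged.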
As to UAACAGGGGGCCACAGCAGAAGCGUUCACGUCGCAGCUCCCGUCAGAUUCUGGUGAAUCAGCGAAUUCUGCUGUAUAUCUC, the self-cleavage was determined as 0.5.
With UAACAGGGGGCCACAGCAGAAGCGUUCACGUCGCAGCCACUGUCGGAUUCUGGUGAAUCUGCGAAUUCCGCUGUAUAACUC, the self-cleavage came to 0.06.
Consider UAACAGGGGGCCACAGCAGAAGCGUUCACGUCGCAGCUCCUGUCAGAUCCUGGUGAACCUGCAAAUUCUGCUGUAUAUCUC, for which the self-cleavage was 0.14.
With UAACAGGGGGCCACAGCAGAAGCGUUCACGUCGCAGCUCCUGUCAGAUUCUGGUGAAUCCGCGAAUUCUGCUGUAUAUCCC, the self-cleavage is 0.16.
On to UAACAGGGGGCCACAGCAGAAGCGUUCACGUCGCAGCACCUGUCAGAUUCUGGUGACUCUGCGGAUUCCGCUGUAUAUCUC, for which the self-cleavage turned out to be 0.1.
Take UAACAGGGGGCCACAGCAGAAGCGUUCACGUCGCAGCUCCCGUCAGAUUCUGGUGAAACUGCGAAUUCUGCUGUAUAUCUC: the self-cleavage came out at 0.47.
With UAACAGGGGGCCACAGCAGAAGCGUUCACGUCGCAGUCCCUGUCAGAUUCCGGUGAAUCUGCGGAUUCUGCUGUAUAUCUC, the self-cleavage is 0.53.
Consider UAACAGGGGGCCACAGCAGAAGCGUUCACGUCGCAGCUCCUAUCAGAUUCUGGUGAAUCUGAGUAUUCUGCUGUAUAUCUC, for which the self-cleavage was determined as 0.13.
Regarding UAACAGGGGGCCACAGCAGAAGCGUUCACGUCGCAGCACCUGUCAGGUUCUGGUGAAUCUGCGAAUUCUGCUGUAUAUCCC, the self-cleavage amounted to 0.05.
As for UAACAGGGGGCCACAGCAGAAGCGUUCACGUCGCAGCUCCUGUCAGAUUAUGGUGGAUCUGCGAAUUCUGCUGAAUAUCUC, the self-cleavage was found to be 0.52.
Take UAACAGGGGGCCACAGCAGAAGCGUUCACGUCGCAGCUCCUGCCAGAUUCUGGUGAAUUUGCGAAUUCUGCUGUAUAUCUC: the self-cleavage was determined as 0.4.
The result for UAACAGGGGGCCACAGCAGAAGCGUUCACGUCGCAGUCCCUGUCAGAUUCCGGUGAAUCUGCGAAUUCUGCUGUUUAUCAC reads 1; that for UAACAGGGGGCCACAGCAGAAGCGUUCACGUCGCAGCUCCUGUCAGGCUCUGGAGAAUCUGCGAAUUCUGCUGUAUUUCUC, 0.13; that for UAACAGGGGGCCACAGCAGAAGCGUUCACGUCGCAGCUCCUGUCAGAUUCUGGUGAAUCUGCGAAUUCAGCUGUAUAUCCC, 0.21.
As to UAACAGGGGGCCACAGCAGAAGCGUUCACGUCGCAGCUCCUGUCAGAUUCUGGUGUAUCUGCGAAUUCUGCUGUACAUCUC, the self-cleavage came out at 0.36.
In the case of UAACAGGGGGCCACAGCAGAAGCGUUCACGUCGCAGUCCCUGUCAGAUUCUGGUGAAUCUGCGAAUUCUGCAGUAUAUCCC it was 0.77; in that of UAACAGGGGGCCACAGCAGAAGCGUUCACGUCGCAGCCACUGUCGGGUUCUGGUGAAUCUGCGAAUUCUGCUGUAUAUCUC, 0.19; in that of UAACAGGGGGCCACAGCAGAAGCGUUCACGUCGCAGCACCUGUCAGAUUCGGGUGAAUCUGCGAAUUCUGCUGUCUAUCUC, 0.41.
The result for UAACAGGGGGCCACAGCAGAAGCGUUCACGUCGCAGCUCCUGUCAGAUCCUGGUGAAUCUGCGAACUCUGCUGUAUAUCUC reads 0.38; that for UAACAGGGGGCCACAGCAGAAGCGUUCACGUCGCAGCUCCUGUCAGAUUCCGGUGAAGCUGCGAAUUCUGCUGUAUAUCUC, 0.16; that for UAACAGGGGGCCACAGCAGAAGCGUUCACGUCGCAGCUCCUGUCAGAUUCUGGAGAAUCUGCGAAUUCUGCCGUAUAUCUC, 0.95.
UAACAGGGGGCCACAGCAGAAGCGUUCACGUCGCAGCUCCUGUCGGAUUCUGGUGGAACUGCGAAUUCUGCUGUAUAUCUC: the self-cleavage turned out to be 0.17.
Consider UAACAGGGGGCCACAGCAGAAGCGUUCACGUCGCAGCUCCUGUCAGAUCCUGUUGAAUCUGCGAAUUCUGCUGUGUAUCUC, for which the self-cleavage worked out at 0.18.
The result for UAACAGGGGGCCACAGCAGAAGCGUUCACGUCGCAGCUCCUGUCAGACUCUGGUGAAUCUGCGAAUACUGCUGUACAUCUC reads 0.31; that for UAACAGGGGGCCACAGCAGAAGCGUUCACGUCGCAGCCACUGUCAGAUUCUGGUGAAUCUGCGGAUUCUGCUGUGUAUCUC, 0.08.
The result for UAACAGGGGGCCACAGCAGAAGCGUUCACGUCGCAGCACCUGUCAGAUUCUGGUGAAUGUGCGAAUUCAGCUGUGUAUCUC reads 0.14; that for UAACAGGGGGCCACAGCAGAAGCGUUCACGUCGCAGCACCUGUCAGAUUCUGGAGAAUCUGCGAAUUCUGCCGUAUAUCUC, 0.28.
The result for UAACAGGGGGCCACAGCAGAAGCGUUCACGUCGCAGCCACUGUCAGAUUCUGGUGAGUCUGCGAAAUCUGCUGUAUAUCUC reads 0.08; that for UAACAGGGGGCCACAGCAGAAGCGUUCACGUCGCAGCCACUGUCAGAUUCUGGUGGACCUGCGAAUUCUGCUGUAUAUCUC, 0.14.
Consider UAACAGGGGGCCACAGCAGAAGCGUUCACGUCGCAGCCACUGUCAGAUUCUGGUGAGACUGCGAAUUCUGCUGUAUAUCUC, for which the self-cleavage was 0.06.
The result for UAACAGGGGGCCACAGCAGAAGCGUUCACGUCGCAGCUCCUGUCAGAAUCUGGCGAAUCUGCGAAUUCUGCUGUAUAUCUC reads 0.13.
The result for UAACAGGGGGCCACAGCAGAAGCGUUCACGUCGCAGCACCGGUCAGGUUCUGGCGAAUCUGCGAAUUCUGCUGUAUAUCCC reads 0.09; that for UAACAGGGGGCCACAGCAGAAGCGUUCACGUCGCAGCUCCUGCCAGAUACUGGUGAAUCUGCGAAUUCUGCUGUAUAUCUC, 0.14.
In the case of UAACAGGGGGCCACAGCAGAAGCGUUCACGUCGCAGUCCCUGUCAGAUUCUGGAGAAUCUGCGUAUUCUGCUGUAUAUCUC, the self-cleavage amounted to 0.17.

Source of the values: the RNAGym collection of RNA variant scans (doi:10.1093/nar/gkz1192).
